In patent US20240190962A1 (IMMUNOWAKE, published 2024):

Target: T1, human IL-2 receptor (IL-2Rα, IL-2Rβ, IL-2Rγ) (human, UniProt P01589 22-272; P14784 27-551; P31785 23-369)
T1 sequence (looked up) 1: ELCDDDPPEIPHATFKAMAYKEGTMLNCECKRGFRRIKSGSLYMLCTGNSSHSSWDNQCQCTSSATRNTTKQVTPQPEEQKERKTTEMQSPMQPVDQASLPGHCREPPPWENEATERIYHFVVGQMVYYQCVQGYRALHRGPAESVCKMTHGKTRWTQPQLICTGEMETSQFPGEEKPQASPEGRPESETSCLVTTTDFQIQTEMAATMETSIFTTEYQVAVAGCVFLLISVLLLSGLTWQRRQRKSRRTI
T1 sequence (looked up) 2: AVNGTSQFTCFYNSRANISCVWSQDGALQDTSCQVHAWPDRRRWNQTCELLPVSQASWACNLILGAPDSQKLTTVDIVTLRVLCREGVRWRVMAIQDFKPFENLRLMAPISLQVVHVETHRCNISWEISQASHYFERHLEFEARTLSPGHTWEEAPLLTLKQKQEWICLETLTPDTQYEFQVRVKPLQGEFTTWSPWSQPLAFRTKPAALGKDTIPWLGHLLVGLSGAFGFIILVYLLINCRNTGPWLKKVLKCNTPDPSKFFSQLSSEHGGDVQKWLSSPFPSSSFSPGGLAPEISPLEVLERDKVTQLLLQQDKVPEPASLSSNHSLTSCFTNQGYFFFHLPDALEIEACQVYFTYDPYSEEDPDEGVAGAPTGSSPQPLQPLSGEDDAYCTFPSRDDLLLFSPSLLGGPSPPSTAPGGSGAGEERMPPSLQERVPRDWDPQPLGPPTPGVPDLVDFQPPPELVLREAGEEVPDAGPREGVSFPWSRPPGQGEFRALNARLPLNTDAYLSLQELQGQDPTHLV
T1 sequence (looked up) 3: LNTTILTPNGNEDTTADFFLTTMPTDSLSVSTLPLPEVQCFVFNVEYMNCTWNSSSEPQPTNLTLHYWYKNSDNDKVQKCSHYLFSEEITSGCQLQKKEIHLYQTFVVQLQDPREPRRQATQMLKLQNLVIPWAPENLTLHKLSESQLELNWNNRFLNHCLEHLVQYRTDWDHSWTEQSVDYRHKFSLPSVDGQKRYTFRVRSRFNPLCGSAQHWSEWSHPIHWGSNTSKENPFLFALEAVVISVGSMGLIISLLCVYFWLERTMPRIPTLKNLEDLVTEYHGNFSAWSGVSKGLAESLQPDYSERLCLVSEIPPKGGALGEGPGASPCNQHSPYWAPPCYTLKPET
Experiment: cell-based or functional assay

B1: parental PD-L2-Fc fusion protein (Fc fusion)
chain: LFTVTVPKELYIIEHGSNVTLECNFDTGSHVNLGAITASLQKVENDTSPHRERATLLEEQLPLGKASFHIPQVQVRDEGQYQCIIIYGVAWDYKYLTLKVKASYRKINTHILKVPETDEVELTCQATGYPLAEVSWPNVSVPANTSHSRTPEGLYQVTSVLRLKPPPGRNFSCVFWNTHVRELTLASIDLQSQMEPRTHPT[letters of human IgG1 Fc with changes left out]
In the case of B1, the “Percent IL-2 signal transduction (HEK-IL-2 reporter assay)” value is reported as 0% and the “Percent IL-2 signal transduction (HEK-PD-1-IL-2 reporter assay)” value is reported as 0%.
